Values marked as one replicate rest on one cluster of the flow cell; about a third of the high ones do not repeat.
Tested on: ATP
Experiment: switch fluorescence ratio, 500 uM ATP over buffer (Cy3 cluster intensity, sum of 5 cycles each) (fold (ratio)); higher = stronger signal-on switching upon ATP binding; sequences stand for … in TCGTCGGCAGCGTCAGATGTGTATAAGAGACAGTTTTTTTTTTTTTTTTTTTTTTTTT…TC
Conditions: aptamer strand: ATP DNA aptamer (quencher-CACCTGGGGGAGTATTGCGGAGGAAGG + anchor), 100 nM annealed; ATP concentration: 500 uM; one replicate
Outline: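 Cy3-labelled switching-strand clusters on a modified Illumina MiSeq flow-cell were annealed to 100 nM quencher-labelled ATP aptamer, imaged in selection buffer, then imaged after 15 min with 500 uM ATP at 22 °C. Five buffer/ATP cycles ran, with NaOH stripping and re-annealing between them. The fluorescence ratio is summed target-cycle over summed buffer-cycle Cy3 intensity per cluster, averaged per switch-domain sequence. Clusters outside 100-1000 RFU were excluded.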
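Also: ATP exposure 15 min at 22 °C before imaging.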

| Sequence | switch fluorescence ratio |
| --- | --- |
| AAAAGGCGGC | 0.967 |
| ACTGGTATGA | 1.05 |
| TTCATTGAGA | 0.995 |
| TGCTCTTACT | 1.06 |
| GCTTTAAAAA | 0.957 |
| CCCTGCAGGG | 1.04 |
| GGCTGTTGAA | 0.968 |
| GGCGGTATTG | 1.01 |
| GTACATTGCG | 1.05 |
| TATCGGACTA | 1 |
| TAAGAGAGT | 1.01 |
| GAATGATGTC | 1.1 |
| GTCCCACGCG | 1 |
| TAGGACATTA | 1.06 |
| GGCATATCGG | 0.973 |
| GTAGGCGGAT | 0.917 |
| TTCCCCTGAC | 1.67 |
| TCGCTCGGTC | 1.03 |
| GTTAAGTCAG | 0.959 |
| CATAAACGTG | 1.04 |
| AGACGATCGG | 1.03 |
| CGGGTCCTGG | 0.975 |

| Sequence | switch fluorescence ratio |
| --- | --- |
| CATCTGGAAC | 1.38 |
| ACCTCAACGT | 1.14 |
| CATTCAGAGT | 0.985 |
| TCAATCCATA | 1.01 |
| TATCTAGAAG | 1.01 |
| CCGCTGGTTA | 1.42 |
| CTATTACTAC | 1.02 |
| AAGGTCTAGG | 1 |
| CTGGGAGAGG | 0.973 |
| GTATTTGGG | 1.02 |
| CGCGGCTGAC | 1.62 |
| GGTATTGCA | 0.985 |
| CGGTACCGAG | 1.02 |
| GTCCTCCCTC | 1.85 |
| ATGGATGTAC | 0.973 |
| TCGTGGAGCA | 1 |
| CATCTCTAAG | 1.02 |
| CGGGTACTAA | 1.03 |
| ATTACAATA | 1.1 |
| GAAAACCGAA | 1.08 |
| GGAAAAGTA | 0.986 |
| CAAACCCCAA | 1 |

| Sequence | switch fluorescence ratio |
| --- | --- |
| ATTCTATTGC | 1.05 |
| ATGTAGCGG | 1.02 |
| GACTCTTATA | 1.05 |
| GTGTTTCGAT | 1.01 |
| GTCTAAGTTG | 1 |
| TGGTGGTTCA | 0.998 |
| TCACCGCATT | 2.47 |
| ATCAACAGAC | 1.03 |
| GATTCGCTTG | 1.04 |
| AGCTGCACA | 1.06 |
| CGTCCTCGGC | 1.26 |
| AGATCCGTCC | 1.18 |
| TAGGTGGGTG | 0.973 |
| ACTCGGAAGC | 1.26 |
| TAAGAGCGG | 0.963 |
| AAGTTATTGG | 0.971 |
| ATCGTAAAGG | 0.958 |
| ACGCATAAAG | 1.21 |
| GAAGTAAGC | 1.22 |
| TAAAAAAGCT | 1.03 |
| GAGAGAAATC | 0.953 |
| CTCGGAATTA | 1.11 |

| Sequence | switch fluorescence ratio |
| --- | --- |
| GCGGTCCGTG | 0.986 |
| ATTTGCCTTT | 1.05 |
| TAGACTAGCG | 0.961 |
| AATGAAAAGG | 0.964 |
| GCAAAGAGTG | 0.964 |
| CAAGCTAGCA | 1 |
| GAGTTACGTG | 1.01 |
| CGCTAGAAGC | 1.01 |
| ACCGTTACGA | 1.08 |
| CCGTCATTAG | 4.01 |
| TTCTATGAAC | 1.02 |
| ACGTCGCTGT | 1.02 |
| ACAGTTGTGT | 1.02 |
| TGCCTGAAGG | 0.975 |
| ACTAGGTTGA | 1.01 |
| AGAGGGTG | 1.08 |
| CCTGCTCCTC | 1.32 |
| TTACTACGTT | 1 |
| TCCCCCACGA | 5.61 |
